# Experimental data: PubChem BioAssay (NCATS)
# This list was built around the results that the source calls inconclusive (neither active nor inactive); the mix of calls is not that of the screen. For some of these results: No potency is given beside an inconclusive call; the fits are too rough. The source made the active and inactive calls. Calls come from the whole dose curve; as a rule, active = well fitted curve in the direction sought with a large enough effect; inconclusive = small, poorly fitted or top-dose-only effect, or another doubt; inactive = no such curve, though single readings can be large; an effect the other way counts as inactive or inconclusive.
# Experiments:
# [1] = qHTS of pediatric cancer cell lines to identify multiple opportunities for drug repurposing: Primary screen for SK-N-MC cells (AID 1347093); details: SK-N-MC viability, CellTiter-Glo luminescence, 48 h; activity change, negative = cytotoxic: at 46 µM (top of the series); note: potency is the fitted concentration of half-maximal effect
# Method in brief: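 Metabolically active cells were quantified by ATP-dependent luminescence (CellTiter-Glo, 15 min at room temperature) following 48 h treatment. Cells had been plated at 500-1,000 per well and settled for 5 h beforehand.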
# [2] = Quantitative High-Throughput drug screen in 47 multiple myeloma cell lines against the NCATS MIPE library collection: KMS12BM_JCRB cell viability assay (AID 1918971); note: potency is the fitted concentration of half-maximal effect; nearly all actives have a fitted effect of over 35% in size
# Method in brief: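 Luminescent ATP measurement with CellTiter-Glo gives viability, scaled between DMSO-only wells (100%) and media-only wells (0%). Cells, 500 per well, faced library compounds for 48 hours at 37C.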
# [3] = Quantitative High-Throughput drug screen in 47 multiple myeloma cell lines against the NCATS MIPE library collection: U266_ATCC cell viability assay (AID 1919864); note: potency is the fitted concentration of half-maximal effect; nearly all actives have a fitted effect of over 35% in size
# Method in brief: (§1)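 ATP-based luminescence (CellTiter-Glo, 5 min RT incubation) quantified surviving cells following two days' treatment with MIPE 4.0 agents at 37 °C, 5% CO2.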
# [4] = Quantitative High-Throughput drug screen in 47 multiple myeloma cell lines against the NCATS MIPE library collection: PCM6_Riken cell viability assay (AID 1919870); note: potency is the fitted concentration of half-maximal effect; nearly all actives have a fitted effect of over 30% in size
# Method in brief: as §1
# [5] = Quantitative High-Throughput drug screen in 47 multiple myeloma cell lines against the NCATS MIPE library collection: KMS11_JCRBsus cell viability assay (AID 1919873); note: potency is the fitted concentration of half-maximal effect; nearly all actives have a fitted effect of over 50% in size
# Method in brief: as §1
# CASKI = experiment: Primary qHTS to identify gynecologic anti-cancer compounds using libraries of approved drugs and bioactive compounds (AID 1345084); details: Gynecologic cancer cell panel viability, ATPlite luminescence, 48 h; series mostly up to 57.5 µM; note: potency is the fitted concentration of half-maximal effect; nearly all actives have a fitted effect of over 55% in size
# Method in brief: (§2)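 Luminescence from the ATPlite ATP-monitoring reagent indicates viable cell number; lower signal means cytotoxicity. Cells received compound 16 h after seeding and were exposed for 48 h across five concentrations.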
# OV90 = experiment: as above; details: Gynecologic cancer cell panel viability, ATPlite luminescence, 48 h; series mostly up to 57.5 µM
# Method in brief: as §2
# [6] = qHTS of pediatric cancer cell lines to identify multiple opportunities for drug repurposing: Primary screen for RD cells (AID 1347104); note: potency is the fitted concentration of half-maximal effect; nearly all actives have a fitted effect of over 55% in size
# Method in brief: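 Viability was measured as metabolically active cells after 48 hours of treatment, read by CellTiter-Glo luminescence. Compounds were tested at multiple final concentrations, giving concentration-response curves.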
# [7] = Quantitative High-Throughput drug screen in 47 multiple myeloma cell lines against the NCATS MIPE library collection: AMO1_DSMZ cell viability assay (AID 1918927; note: potency is the fitted concentration of half-maximal effect; nearly all actives have a fitted effect of over 30% in size)
# Method in brief: (§3)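 Steps: seed 500 cells per well; pin-transfer MIPE 4.0 library; incubate 48 h at 37C, 5% CO2, humidified; add CellTiter-Glo, 5 min room temperature; read luminescence.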
# [8] = Quantitative High-Throughput drug screen in 47 multiple myeloma cell lines against the NCATS MIPE library collection: KMM1_JCRB cell viability assay (AID 1918960); note: potency is the fitted concentration of half-maximal effect; nearly all actives have a fitted effect of over 30% in size
# Method in brief: (§4)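 500 cells/well; MIPE 4.0 library pinned in; 48 h, 37 °C, 5% CO2; CellTiter-Glo ATP luminescence. Controls: DMSO = 100% viability, medium only = 0%.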
# [9] = Quantitative High-Throughput drug screen in 47 multiple myeloma cell lines against the NCATS MIPE library collection: ARP1_JJKsccF8 cell viability assay (AID 1918928; note: potency is the fitted concentration of half-maximal effect; nearly all actives have a fitted effect of over 40% in size); details: ARP1 myeloma cells viability, CellTiter-Glo ATP, 48 h; viability: at 45.8 µM (top of the series)
# Method in brief: as §4
# [10] = Quantitative High-Throughput drug screen in 47 multiple myeloma cell lines against the NCATS MIPE library collection: RPMI8226_ATCC cell viability assay (AID 1919871); note: potency is the fitted concentration of half-maximal effect; nearly all actives have a fitted effect of over 30% in size
# Method in brief: as §1
# [11] = qHTS Assay for Identifying Gametocytocidal Compounds (AID 743244); note: potency is the fitted concentration of half-maximal effect; details: P. falciparum 3D7 stage III-V gametocytes, alamarBlue, 72 h; max response: active compounds read low
# Method in brief: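 Compounds are pinned into medium, gametocytes (stage III–V, 3D7, 20,000 cells/well) added, and plates held 72 h at 37 °C in 5% CO2. AlamarBlue follows for 24 h before fluorescence reading.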
# [12] = Primary qHTS for small molecule stabilizers of the endoplasmic reticulum resident proteome: Secreted ER Calcium Modulated Protein (SERCaMP) assay (AID 1508630); details: SH-SY5Y GLuc-SERCaMP (Gaussia luciferase released on ER calcium loss) secretion, thapsigargin, luminescence; series mostly up to 38.4 µM
# Method in brief: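 The SH-SY5Y reporter protocol was run at 3 concentrations up to 38.3 uM (primary) or 11 concentrations (follow-up): 16 h compound, 100 nM thapsigargin for 4 h, then extracellular luciferase luminescence.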
# [13] = Quantitative High-Throughput drug screen in 47 multiple myeloma cell lines against the NCATS MIPE library collection: Karpas620_DSMZ cell viability assay (AID 1918959)
# Method in brief: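 Approved and investigational drugs from MIPE 4.0 were added by pin tool to 500 cells per well. After 48 hours at 37C, ATP-based CellTiter-Glo luminescence indicated remaining viability.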
# [14] = Quantitative High-Throughput drug screen in 47 multiple myeloma cell lines against the NCATS MIPE library collection: EJM_DSMZ cell viability assay (AID 1918926)
# Method in brief: as §3
# PA-1 = experiment: Primary qHTS to identify gynecologic anti-cancer compounds using libraries of approved drugs and bioactive compounds (AID 1345084); details: Gynecologic cancer cell panel viability, ATPlite luminescence, 48 h; series mostly up to 57.5 µM; note: potency is the fitted concentration of half-maximal effect; nearly all actives have a fitted effect of over 55% in size
# Method in brief: as §2
# Tags give direction and shape of the fitted curve.
smiles,measurement,setting,value
CNC(=O)c1cc(Oc2ccc(NC(=O)Nc3cc(C(C)(C)C)nn3-c3ccc4ncccc4c3)c(F)c2)ccn1,Potency,[1],"inconclusive [cytotoxic, full curve, poor fit]"
same,Potency,[2],active: 5.9 µM
same,Potency,[3],active: 13.2 µM
same,Potency,[4],active: 2.64 µM
same,Potency,[5],"inconclusive [cytotoxic, full curve, poor fit]"
same,Potency,CASKI,"inconclusive [cytotoxic, single point]"
same,Potency,OV90,"inconclusive [cytotoxic, partial curve, poor fit]"
COc1cc(=C2C=c3ccccc3=N2)[nH]c1=Cc1[nH]c(C)cc1C,Potency,[6],active: 2.96 µM
same,Potency,[7],"inconclusive [cytotoxic, partial curve]"
same,Potency,[8],"inconclusive [cytotoxic, partial curve, poor fit]"
Cn1cncc1[C@@](N)(c1ccc(Cl)cc1)c1ccc2c(c1)c(-c1cccc(Cl)c1)cc(=O)n2C,Potency,[1],active: 1.66 µM
same,Potency,[9],active: 0.469 µM
same,Potency,[10],active: 5.26 µM
C[C@]12CCC(=O)C=C1CC[C@@H]1[C@@H]2[C@@H](O)C[C@@]2(C)[C@H]1CC[C@]2(O)C(=O)CO,Potency,OV90,"inconclusive [cytotoxic, partial curve, poor fit]"
Cc1c(CN2CCN(C(=O)C(C)C)CC2)sc2c(N3CCOCC3)nc(-c3cnc(N)nc3)nc12,Potency,[11],"inconclusive [inhibitor, single point]"
same,Potency,[12],inactive
same,Potency,[7],active: 0.166 µM
same,Potency,[13],"inconclusive [cytotoxic, full curve]"
same,Potency,[2],active: 0.0296 µM
same,Potency,[5],"inconclusive [cytotoxic, full curve]"
Cc1cc(Nc2cc(N3CCN(C)CC3)nc(Sc3ccc(NC(=O)C4CC4)cc3)n2)n[nH]1,Potency,[11],active: 23.5 µM
same,Potency,[1],active: 0.418 µM
same,Potency,[6],active: 18.7 µM
same,Potency,[14],active: 14.8 µM
same,Potency,[13],active: 0.0332 µM
same,Potency,[8],active: 5.9 µM
same,Potency,[2],"inconclusive [cytotoxic, partial curve, poor fit]"
same,Potency,[5],active: 2.35 µM
same,Potency,CASKI,"inconclusive [cytotoxic, partial curve, poor fit]"
same,Potency,OV90,"inconclusive [cytotoxic, partial curve]"
same,Potency,PA-1,"inconclusive [cytotoxic, partial curve, poor fit]"
